Consider 153 variants from a collection of fitness landscapes (doi:10.1126/science.1257360).

This is one part of the list.

The labels stand for the following.
B1: PhoQ; a variant is named by its letters at X, in order, P23837 (parent)
chain: MKKLLRLFFPLSLRVRFLLATAAVVLVLSLAYGMVALIGYSVSFDKTTFRLLRGESNLFYTLAKWENNKLHVELPENIDKQSPTMTLIYDENGQLLWAQRDVPWLMKMIQPDWLKSNGFHEIEADVNDTSLLLSGDHSIQQQLQEVREDDDDAEMTHSVAVNVYPATSRMPKLTIVVVDTIPVELKSSYMVWSWFIYVLSANLLLVIPLLWVAAWWSLRPIEALAKEVRELEEHNRELLNPATTRELTSLVRNLNRLLKSERERYDKYRTTLTDLTHSLKTPLXXLQXXLRSLRSEKMSVSDAEPVMLEQISRISQQIGYYLHRASMRGGTLLSRELHPVAPLLDNLTSALNKVYQRKGVNISLDISPEISFVGEQNDFVEVMGNVLDNACKYCLEFVEISARQTDEHLYIVVEDDGPGIPLSKREVIFDRGQRVDTLRPGQGVGLAVAREITEQYEGKIVAGESMLGGARMEVIFGRQHSAPKDE

In the experiment the parent is B1. Nature of the experiment: enrichment ratio after two sorts for PhoP signalling (ratio (wild type AVST 3.29)); higher = more functional. The conditions noted are these: with PhoP (E. coli).
Take ATME: the enrichment ratio amounted to 7.5.

As to SGFI, the enrichment ratio is 4.52. With QCFD, the enrichment ratio is at most 0.25. For IDIA the value was at most 0.25; for DYYG, at most 0.25; for IPNL, at most 0.25. For QQLK, the enrichment ratio is at most 0.25. As for NKPK, the enrichment ratio was at most 0.25.

LCGL: the enrichment ratio was at most 0.25. For EDVS the value was at most 0.25. As to EFCA, the enrichment ratio is at most 0.25.

As to MDSN, the enrichment ratio was at most 0.25.

For SANQ, the enrichment ratio is at most 0.25. On to YQPW, for which the enrichment ratio is at most 0.25. Consider KCND, for which the enrichment ratio was at most 0.25. On to ACSH, for which the enrichment ratio was 6.81.

In the case of LYKE, the enrichment ratio was at most 0.25. KTNH: the enrichment ratio is at most 0.25.

On to LWGW, for which the enrichment ratio was at most 0.25.

Take FNFP: the enrichment ratio is at most 0.25. Take ALGL: the enrichment ratio is 8.36.

Consider EPIW, for which the enrichment ratio was at most 0.25. Regarding VQST, the enrichment ratio was at most 0.25. Consider DMWN, for which the enrichment ratio was at most 0.25. As to PRGH, the enrichment ratio is at most 0.25.

For VNGF, the enrichment ratio was at most 0.25. Turning to KPQL, the enrichment ratio is at most 0.25. On to ARMM, for which the enrichment ratio amounted to 5.29. For the variant GNAR, the enrichment ratio is at most 0.25.

Turning to WTSW, the enrichment ratio is at most 0.25.

Turning to LMEE, the enrichment ratio was at most 0.25. For MVHR, the enrichment ratio was at most 0.25.

With HPRS, the enrichment ratio is at most 0.25.

Turning to PYDR, the enrichment ratio is at most 0.25. Turning to DSVY, the enrichment ratio is at most 0.25. As to MIYR, the enrichment ratio stood at 2.6. Turning to NDDS, the enrichment ratio is at most 0.25. As for VHLR, the enrichment ratio was at most 0.25. On to WNVS, for which the enrichment ratio was at most 0.25. For the variant MTPG, the enrichment ratio was at most 0.25. For SGSF, the enrichment ratio was 1.84.

As to SSQD, the enrichment ratio was at most 0.25. On to QNIQ, for which the enrichment ratio was at most 0.25. Regarding FEFE, the enrichment ratio was at most 0.25. Next, SEQN: 21.6; KSDW: at most 0.25; YEHH: at most 0.25.

As for NKQA, the enrichment ratio was at most 0.25. Turning to SYLI, the enrichment ratio came to 0.306.

For FWNP, the enrichment ratio was at most 0.25. For the variant KQAV, the enrichment ratio is at most 0.25.

As to TGLE, the enrichment ratio was 9.53. For the variant GWCH, the enrichment ratio is at most 0.25. LYFS: the enrichment ratio was at most 0.25. As to GIYM, the enrichment ratio was at most 0.25. For the variant TVDN, the enrichment ratio was at most 0.25. For KISK the value was at most 0.25; for HTSI, at most 0.25; for SNWH, at most 0.25. For the variant RNCW, the enrichment ratio was at most 0.25. Next, QEVI: at most 0.25; IAMG: at most 0.25; ITAF: at most 0.25.

For the variant LTFT, the enrichment ratio is at most 0.25.

In the case of ELEP, the enrichment ratio is at most 0.25.

With IHQN, the enrichment ratio was at most 0.25. Consider SEHC, for which the enrichment ratio was at most 0.25. Turning to QPPS, the enrichment ratio is at most 0.25.

For TYMM, the enrichment ratio came to 2.16. On to RVYR, for which the enrichment ratio is at most 0.25. Take EYRD: the enrichment ratio is at most 0.25. As for DVCR, the enrichment ratio was at most 0.25.

PMNW: the enrichment ratio was at most 0.25. Next, YMKR: at most 0.25.

For the variant IHFN, the enrichment ratio was at most 0.25. Next, GQHD: at most 0.25; FQRI: at most 0.25; NAIY: at most 0.25. Next, VFTD: at most 0.25; VNYK: at most 0.25; HTSK: at most 0.25.

Turning to KFTH, the enrichment ratio was at most 0.25. QSVC: the enrichment ratio is at most 0.25. Take MIQH: the enrichment ratio was at most 0.25. On to HCRF, for which the enrichment ratio is at most 0.25.

ASNA: the enrichment ratio is at most 0.25. With YQVV, the enrichment ratio is at most 0.25. On to RGFC, for which the enrichment ratio came out at 2.13.

For DWYK, the enrichment ratio was at most 0.25.

Regarding VSPK, the enrichment ratio is at most 0.25. With YDPI, the enrichment ratio was at most 0.25.

As for GYDP, the enrichment ratio was at most 0.25. Turning to YWII, the enrichment ratio was at most 0.25. In the case of PDRK, the enrichment ratio is at most 0.25.

As for LQMM, the enrichment ratio was at most 0.25.

Turning to HDYY, the enrichment ratio is at most 0.25.

Take SWCW: the enrichment ratio is at most 0.25. For RRCN the value was 0.458; for PVVH, at most 0.25; for RLCQ, at most 0.25. For FPPW the value was at most 0.25; for TYNR, at most 0.25; for IHPY, at most 0.25. For KKSG the value was at most 0.25; for RLMA, at most 0.25; for NRVF, at most 0.25. For YKFH, the enrichment ratio was at most 0.25.

As to SIEA, the enrichment ratio is at most 0.25.

Take WHPW: the enrichment ratio is at most 0.25. In the case of ASTH, the enrichment ratio was determined as 6.74. As for HKFC, the enrichment ratio is at most 0.25.

As for PPMK, the enrichment ratio is at most 0.25. Consider LHMY, for which the enrichment ratio was at most 0.25. In the case of FDHG, the enrichment ratio was at most 0.25. Turning to HYTT, the enrichment ratio is at most 0.25.

On to YCWN, for which the enrichment ratio is at most 0.25.

As to NQIS, the enrichment ratio was at most 0.25. For the variant TGVA, the enrichment ratio came out at 10.9. With YGIE, the enrichment ratio was at most 0.25. For the variant GGQG, the enrichment ratio was at most 0.25. As for HPNE, the enrichment ratio was at most 0.25. Turning to HMCN, the enrichment ratio was at most 0.25. Regarding WMIW, the enrichment ratio was at most 0.25. Regarding HFYH, the enrichment ratio was at most 0.25. As for SDWT, the enrichment ratio was at most 0.25. For MFQA, the enrichment ratio was at most 0.25. For VAHY the value was at most 0.25; for MHIC, at most 0.25. In the case of TSEF, the enrichment ratio is at most 0.25.

Turning to STTP, the enrichment ratio was at most 0.25. As for HWYA, the enrichment ratio was at most 0.25. As for LKKG, the enrichment ratio is at most 0.25. For MASK, the enrichment ratio was at most 0.25.

Consider WRVI, for which the enrichment ratio worked out at 0.425. For the variant LPSH, the enrichment ratio is at most 0.25. For the variant AETR, the enrichment ratio was determined as 3.45. Next, RLMY: at most 0.25; DKCG: at most 0.25.

For the variant HPSR, the enrichment ratio was at most 0.25. For the variant HLDM, the enrichment ratio is at most 0.25. Regarding WACL, the enrichment ratio is at most 0.25.

On to SQWV, for which the enrichment ratio was at most 0.25.

Turning to IHGH, the enrichment ratio is at most 0.25. As for PQGW, the enrichment ratio was at most 0.25. Turning to NGLN, the enrichment ratio is at most 0.25. Turning to KRPG, the enrichment ratio was at most 0.25. Consider KRYF, for which the enrichment ratio was at most 0.25. As to PYPH, the enrichment ratio is at most 0.25. WFHQ: the enrichment ratio was at most 0.25. For DCTV the value was at most 0.25.

On to KMQP, for which the enrichment ratio is at most 0.25.

For the variant SPLG, the enrichment ratio is at most 0.25. As to SHDD, the enrichment ratio is at most 0.25.
